Reference: PMC4336329 (PLoS ONE, 2015)
Among all 310,000 compounds or so, about 14,000 (4.5%) showed an effect of 50% or more. The effect is printed as a negative number. The list shows a part of the results.

Target: human ether-à-go-go-related gene (hERG) potassium channel (human, UniProt Q12809)
Assay: primary screen, population patch clamp on CHO cells stably expressing hERG
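Note: peak tail current of the secondary pulse compared with the same well before compound.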

human ether-à-go-go-related gene (hERG) potassium channel, sequence (Q12809 whole entry, looked up): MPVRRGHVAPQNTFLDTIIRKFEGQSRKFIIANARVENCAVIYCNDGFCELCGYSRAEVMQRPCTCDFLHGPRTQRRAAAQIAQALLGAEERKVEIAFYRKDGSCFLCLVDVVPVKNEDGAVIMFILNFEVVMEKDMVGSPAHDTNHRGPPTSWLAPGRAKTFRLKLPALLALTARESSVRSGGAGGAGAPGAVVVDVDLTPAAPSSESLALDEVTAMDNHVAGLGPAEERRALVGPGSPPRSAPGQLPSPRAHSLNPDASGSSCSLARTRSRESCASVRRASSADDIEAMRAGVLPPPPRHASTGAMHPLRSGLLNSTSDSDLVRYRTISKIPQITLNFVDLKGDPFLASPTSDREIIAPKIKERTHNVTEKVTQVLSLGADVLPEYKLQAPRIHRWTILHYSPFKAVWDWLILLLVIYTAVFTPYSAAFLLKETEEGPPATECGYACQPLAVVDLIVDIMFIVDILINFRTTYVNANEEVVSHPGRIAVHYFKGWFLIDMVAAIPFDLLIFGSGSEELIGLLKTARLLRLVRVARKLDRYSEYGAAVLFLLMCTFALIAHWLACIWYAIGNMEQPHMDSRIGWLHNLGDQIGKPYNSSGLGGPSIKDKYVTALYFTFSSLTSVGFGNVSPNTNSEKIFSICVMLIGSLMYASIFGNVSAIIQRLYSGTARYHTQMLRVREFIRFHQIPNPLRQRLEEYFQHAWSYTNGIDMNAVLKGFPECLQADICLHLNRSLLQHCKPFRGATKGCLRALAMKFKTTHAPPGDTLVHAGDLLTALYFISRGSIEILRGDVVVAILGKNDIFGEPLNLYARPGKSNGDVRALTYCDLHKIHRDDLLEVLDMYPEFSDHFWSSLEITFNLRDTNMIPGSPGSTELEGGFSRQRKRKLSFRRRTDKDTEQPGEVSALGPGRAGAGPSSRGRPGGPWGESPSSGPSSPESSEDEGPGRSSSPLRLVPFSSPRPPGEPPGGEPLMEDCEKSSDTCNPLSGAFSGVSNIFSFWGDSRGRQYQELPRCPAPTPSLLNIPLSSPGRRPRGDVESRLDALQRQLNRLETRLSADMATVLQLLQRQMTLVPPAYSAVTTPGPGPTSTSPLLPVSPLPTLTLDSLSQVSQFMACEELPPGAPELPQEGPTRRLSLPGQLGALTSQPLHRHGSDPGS

| Compound | hERG current change (%, negative = inhibition) at 10uM [%] |
| --- | --- |
| COc1ccccc1C(=O)NNC(=O)c1cccc(Cl)c1 | 2.83 |
| COCCNC(=O)C1CC2Cn3c(nc4ccccc43)C2N1C (centres unmarked) | 11.2 |
| Cc1ccc(-c2nnn(CC(=O)N3C(C)CCCC3C)n2)cc1 (centres unmarked) | 12 |
| COCCN(CCOC)C(=O)CN1C(=O)NC(Cc2c[nH]c3ccccc23)C1=O (centres unmarked) | 3.92 |
| O=C(O)/C=C/c1cccc(NC(=O)Nc2ccc([N+](=O)[O-])cc2)c1 | 14.1 |
| CCCn1c(-c2ccc(OC)cc2)nc2nc3ccccc3nc21 | -2.75 |
| FC(F)Oc1ccc(-n2cc(-c3ccccc3)[n+]3c2CCCCC3)cc1.[Br-] | -55.6 |
| O=C(c1cccc(C(F)(F)F)c1)C1CCCN(C(=O)CCc2cnccn2)C1 (centres unmarked) | -15.6 |
| CN1CCN(C(=O)Cn2ncc3c([nH]c4ccccc43)c2=O)CC1 | 0.784 |
| Cc1ccccc1NC(=O)c1ccc2nc(N3CCOCC3)sc2c1 | -24.6 |
| Cc1cc(=O)nc2c3ccccc3n(CC(=O)NCCCN3CCCC3=O)n12 | 9.15 |
| CN(C)CCCN(C(=O)COc1ccc(Cl)cc1)c1nc2cc3c(cc2s1)OCCO3.Cl | -55 |
| COc1ccccc1/C=C(\NC(=O)c1ccccc1)C(=O)NCc1ccco1 | 5.22 |
| COc1ccc2c(c1)C1(Nc3ccccc3C(=O)N1c1ccccc1)C(=O)N2 (centres unmarked) | -8.68 |
| CCN(CC(=O)NCc1cccs1)C(=O)/C=C/c1cccc(Br)c1 | -66.8 |
| Cc1csc(SCC(=O)NCCc2ccc(Cl)cc2Cl)n1 | -39.7 |
| COc1ccc(C2SCC(=O)N2CCc2ccc(OC)c(OC)c2)cc1 (centres unmarked) | -31.3 |
| O=C(CSc1nc(NS(=O)(=O)c2ccccc2)cc(=O)[nH]1)Nc1ccccc1C(F)(F)F | 9.04 |
| O=C(CCC(=O)N1CCN(S(=O)(=O)c2ccccc2)CC1)NC1CCCc2ccccc21 (centres unmarked) | -13.5 |
| Cc1ccc(Nc2nc(N)nc(CCl)n2)c(C)c1 | 16.1 |
| Cc1cc(=O)oc2cc(OC(C(=O)O)c3ccccc3)ccc12 (centres unmarked) | 29.1 |
| NC(=[NH2+])SCc1nc2ccccc2c(=O)n1-c1ccccc1.[Br-] | -11.9 |
| Cn1c(=O)c2c(nc(NCCNC(=O)c3ccco3)n2Cc2ccc(Cl)cc2Cl)n(C)c1=O | 6.53 |

| Compound | hERG current change (%, negative = inhibition) at 10uM [%] |
| --- | --- |
| O=C(NCc1nc(-c2ccc(Cl)cc2)no1)c1ccc2c(c1)OCO2 | 1.47 |
| Cc1cc(C(=O)COc2ccccc2C#N)c(C)n1C1CC1 | 12.4 |
| O=C(O)C(O)c1ccccc1 (centres unmarked) | 1.14 |
| CCOC(=O)C1(CCc2ccccc2)CCN(C(=O)[C@@H]2C[C@@H](C)NC(=S)N2)CC1 | 6.08 |
| O=C(CCNC(=O)c1ccco1)NC(Cc1c[nH]c2ccccc12)C(=O)O (centres unmarked) | 9.64 |
| Cc1ccc(S(=O)(=O)NCCSc2ncccn2)cc1 | 20.6 |
| COc1cc(C(=O)Oc2cccnc2)cc(OC)c1OC.Cl | 17 |
| Cn1nc(C(C)(C)C)cc1C(=O)NCc1ccc(N2CCCC2=O)cc1 | -14.6 |
| CCN1C(=O)/C(=C\c2cn(CCC#N)nc2-c2ccc(F)cc2)SC1=S | 5 |
| COc1ccc(CCNC(=O)CSc2nc(O)cc(=O)[nH]2)cc1OC | 9.95 |
| COc1ccc(CCCc2nnc(SCC(=O)Nc3nccs3)n2C)cc1C | 4.33 |
| O=C(CCCOc1ccc(Cl)cc1Cl)N1CCC2(CC1)OCCO2 | -39.5 |
| COC(=O)COc1ccc(C2NC(=O)NC(c3ccccc3)=C2C(C)=O)cc1Br (centres unmarked) | 12.8 |
| C=CCN=C1CCCc2c1[nH]c1ccc(C)cc21 | -8.98 |
| CCOc1cccc2cc(-c3nnc(NCc4ccco4)s3)c(=O)oc12 | -2.37 |
| CCOC(=O)C1CCN(C(=O)C(=O)N2CCC(C(=O)OCC)CC2)CC1 | -14.1 |
| C/C=C/c1ccc(OCCCCn2cncn2)c(OC)c1 | -14.9 |
| COC(=O)c1cnc(NNS(=O)(=O)c2ccc(Cl)cc2)nc1C(F)(F)F | -7.18 |
| CNc1[nH]ncc1[N+](=O)[O-] | 12.4 |
| COc1ccc(/C=N/NC(=O)c2ccncc2)c(OC)c1 | 19.3 |
| CSc1ccc(C(=O)NCC(c2ccco2)N(C)C)cc1[N+](=O)[O-] (centres unmarked) | 17.8 |
| O=C(C1=C(O)C(=O)N(CC2CCCO2)C1c1cccc(O)c1)c1ccco1 (centres unmarked) | 5.04 |
| Cc1ccc(C)c(NC(=O)CSc2ccc(-c3ccco3)nn2)c1 | 31 |

| Compound | hERG current change (%, negative = inhibition) at 10uM [%] |
| --- | --- |
| S=C(NCc1ccncc1)Nc1cccc(Cl)c1 | -28.4 |
| COCCCNC(=O)C(=O)Nc1cc2c3c(c1)CCC(=O)N3CCC2 | 20.3 |
| COc1ccc(C(=O)Nc2ccc(S(=O)(=O)Nc3nccnc3OC)cc2)cc1OC | 4.52 |
| COC(=O)c1ccc(/C=C(\C#N)c2ccccn2)cc1 | 15.2 |
| COc1ccccc1-c1nc(SCC(=O)Nc2ccccc2F)n[nH]1 | -5.52 |
| CC(C)(C)c1ccc(OCC(=O)N2CCN(c3ccccn3)CC2)cc1 | -51.7 |
| Cc1cc(C)n(CCN(C)C(=O)C2CCC(=O)N(CCN3CCOCC3)C2)n1 (centres unmarked) | 9.46 |
| COc1cccc(NC(=O)C(=O)c2cn(CC(=O)N3CCOCC3)c3ccccc23)c1 | -0.727 |
| COc1cc(C2Nc3ccc4ccccc4c3C3=C2C(=O)CC(C)(C)C3)ccc1OCC(=O)O (centres unmarked) | 19.5 |
| Cc1ccnc(NC(=O)CCNC(=O)c2ccc(Cl)cc2)c1 | 13.2 |
| CCOc1c(N2CCOCC2)c(=O)c1=O | 13.5 |
| CN1C(=O)N(C)C2(c3ccccc3)N(C(C)(C)C)C(=O)NC12c1ccccc1 (centres unmarked) | -20 |
| COC(=O)c1sc2ncccc2c1OCc1c(Cl)cccc1Cl | 34.2 |
| COc1ccc(N=Nc2ccc(CO)cc2)cc1 | -28.3 |
| COc1cccc(Oc2c(C)oc3cc(OC(=O)N(C)C)ccc3c2=O)c1 | -12.4 |
| CCC1(CC)Cc2ccccc2C(C2=C(O)CC(C)(C)CC2=O)=N1 | 7.12 |
| CCOC(=O)NCc1ccc(CNC(=O)OCC)cc1 | 11.8 |
| COc1cc(C(=S)N2CCOCC2)ccc1OS(=O)(=O)c1ccc(NC(C)=O)cc1 | -3.21 |
| O=C(CN(Cc1ccco1)Cc1ccco1)Nc1cc(S(=O)(=O)N2CCCCC2)ccc1Cl | -49.6 |
| CC(C)(C)C(=O)Nc1nnc(SCC(=O)NC2CCCC2)s1 | 14.4 |
| O=[N+]([O-])c1ccc(S(=O)(=O)CC(CN2CCOCC2)N2CCOCC2)cc1 (centres unmarked) | -1.68 |
| CC1(C)NC(=O)N(CCOCCOc2cccc(Oc3ccccc3)c2)C1=O | -8.91 |
| Cc1ccc(N(Cc2cc(=O)[nH]c3ccccc23)C(=O)c2ccco2)cc1 | -34.4 |

| Compound | hERG current change (%, negative = inhibition) at 10uM [%] |
| --- | --- |
| Cc1cc(OC(C)C(=O)NCC2CCC(C(=O)O)CC2)c2c(C)cc(=O)oc2c1 (centres unmarked) | 24.5 |
| O=C(NC1CC1)C1CCN(C2CCN(C(=O)/C=C/c3ccc(F)cc3)CC2)CC1 | -62.9 |
| Cc1ccc(Sc2ccc(S(=O)(=O)Nc3ccc(CC(=O)O)cc3)cc2)cc1C | 3.13 |
| O=C(CCC(=O)Nc1cccnc1)Nc1cccnc1 | 16.8 |
| CCOc1ccccc1NC(=O)CN1CCN(C(=O)C2CCCO2)CC1 (centres unmarked) | -10.6 |
| N#Cc1sc(NCc2ccccc2)nc1Cl | -12.3 |
| Cc1ccc(C)c(NC(=S)N2CCN(c3ccccn3)CC2)c1 | 14.2 |
| Cn1nnnc1SCC(=O)Nc1ccccc1Cl | 9.22 |
| Cn1cc(Br)c(C(=O)NNC(=O)c2ccc(Br)cc2)n1 | 4.21 |
| CCOC(=O)C1C(=O)NC(c2ccccc2)=NC1c1ccc(Br)cc1 (centres unmarked) | 10.4 |
| CC(=O)/C=C\c1ccccc1OC(=O)c1cc2ccccc2oc1=O | 12.2 |
| O=Cc1cn(CCC(=O)O)nc1-c1cccc(Cl)c1 | 16.7 |
| COc1ccc(NC(=O)Cc2c[nH]c3ccccc23)cc1S(=O)(=O)N1CCOCC1 | -0.207 |
| O=C(C[n+]1ccccc1)N/N=C/c1ccccc1[N+](=O)[O-].[Cl-] | 40.2 |
| C=C1CCC(O)C2(C)CCC3C(C)C(=O)OC3C12O (centres unmarked) | 13.6 |
| Cc1cc(NC(=O)CCc2ccc(S(=O)(=O)N3CCOCC3)cc2)n(-c2ccccc2)n1 | -15.2 |
| CCOc1ccc(-n2ccnc(SCC(=O)Nc3cccc(OC)c3)c2=O)cc1 | -12.8 |
| O=C(OCc1nnc(-c2ccccc2)o1)c1ccc([N+](=O)[O-])o1 | 8.25 |
| COc1ccc(NC2CCCN(C(=O)c3csc(C(C)C)n3)C2)cc1 (centres unmarked) | 0.853 |
| NS(=O)(=O)c1ccc(CCNS(=O)(=O)c2cccc(C(=O)O)c2)cc1 | 15.9 |
